# Experimental data reported in the supplement of paper PMC11417369.
# The list shows a part of the results.
# Test system: PF3D7_0420300 AP2 domain 1 (GST-tagged)
# Experiment: gcPBM binding intensity (ln(normalized median fluorescence intensity)); higher = stronger DNA binding
# In short: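 Each value is the highest Masliner-normalised natural-log median intensity across replicate spots of either orientation of a probe. The probes were primer-extended double-stranded 36-bp intergenic genomic sequences on an Agilent 4 × 180k array, alongside negative controls, exposed for 1 h to GST-tagged P. falciparum DNA-binding domains expressed in E. coli. Bound protein was picked up with Alexa488 anti-GST antibody and scanned at 488 nm.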
row,Sequence,gcPBM binding intensity (ln)
1,AAAAAAAATTATTATGAACACACATTTATTATATTC [CACACA_site8443],9.28
2,TAATATGATCTTAATAGTACTTTATTAATAATAACC [XGTACX_site1953],9.07
3,TATATATGTTTATGTAGTACTATATATCCCTTTCTT [XGTACX_site7049],9.36
4,CACGCACAGATATATACACACTTTTATTTAAATAAC [CACACA_site6852],9.53
5,GGATGCACACAAAAGGGTACATAAGAAAAAAACAGG [XGTACX_site8570],9.59
6,AAAAATAAAATGGACACACACGTTCAAATTTAGATT [CACACA_site5186],9.74
7,TGGGTAAACAAACACACACACATATATATATATATA [CACACA_site1992],9.78
8,TTCACTAATAAATACGCACACATATACAGATATATA [CACACA_site4887],9.39
9,AAATATATATATAGTTGTACATATATCGTATATATT [XGTACX_site7867],9.31
10,AGTTGTTACGAACATACACACGAACATAGACACGGA [CACACA_site8102],9.76
11,AAAAAAAAATATATAAACACACATATTTATATACAC [GTGCAC_negctrl_site545],9.61
12,TTATTTAAATAATATGTACACACATTTAAAAAATTA [CACACA_site8912],9.1
13,ATGAGTGTAATAATATGTACATAACCTACATAATTT [XGTACX_site852],9.31
14,ATAAAAATATTACGCACACACAAACTTATTCATTAT [CACACA_site1969],9.87
15,TTGTTCAAACAAAAAATAAAATAATTGAAAATAAAA [CACACA_negctrl_site812],9.01
16,GTAACTTTATTATACTGTACTATTATATAAGCACAC [XGTACX_site2859],9.34
17,TGTAAAAAATTTAACACACACATATATATATATATA [CACACA_site2585],9.46
18,ATTACAATATATACGTGTACATATTACCACCGCTAC [XGTACX_site2308],9.41
19,AAAAAAAAAAGACACACACACAAAAAAAGATATATA [CACACA_site6645],10.2
20,TAGAATAAGATAGATATACACACCATTATAAATATA [CACACA_site2500],9.6
21,TTACAAAATAAGAGGCACAAACACAAAAAAAAATAA [CACACA_negctrl_site574],9.62
22,AAAAAAAAAAGACATGCATACGCTAATTTTTAGTTG [TGCATGCA_site300],9.03
23,TATTATAATAAGAAGTGTACGTGTTTTTATAAATAA [XGTACX_site575],9.04
24,TATAAAAAAAACGAAAAAAAAAAAAAAAATACAGGA [TGCATGCA_negctrl_site585],9.72
